Measured values as given in PubChem BioAssay AID1030 (National Center for Advancing Translational Sciences (NCATS), 2008).
Out of some 220,000 compounds screened, about 16,000 (7.3%) were called active. Inconclusive results, whose numbers are uncertain, are shown with a selection of clear calls. Calls come from the whole dose curve; as a rule, active = well fitted inhibition curve with a large enough effect (not every such curve was filed as active); inconclusive = small, poorly fitted or top-dose-only effect, or another doubt; inactive = no such curve, though single readings can be large or run the other way. A potency beside an inconclusive call is a rough fit, not a confirmed value.

target: Aldehyde dehydrogenase 1A1 (Homo sapiens) (UniProt P00352); assay: qHTS Assay for Inhibitors of Aldehyde Dehydrogenase 1 (ALDH1A1); settings: Purified ALDH1A1, NADH fluorescence, propionaldehyde substrate; series mostly up to 75.3 µM;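 for activity, negative = inhibition: plate controls were no enzyme wells and a reference inhibitor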
Potency is the fitted concentration of half-maximal effect; tags give direction and shape of the fitted curve.

Sequence of UniProt P00352 (P00352 whole entry, looked up): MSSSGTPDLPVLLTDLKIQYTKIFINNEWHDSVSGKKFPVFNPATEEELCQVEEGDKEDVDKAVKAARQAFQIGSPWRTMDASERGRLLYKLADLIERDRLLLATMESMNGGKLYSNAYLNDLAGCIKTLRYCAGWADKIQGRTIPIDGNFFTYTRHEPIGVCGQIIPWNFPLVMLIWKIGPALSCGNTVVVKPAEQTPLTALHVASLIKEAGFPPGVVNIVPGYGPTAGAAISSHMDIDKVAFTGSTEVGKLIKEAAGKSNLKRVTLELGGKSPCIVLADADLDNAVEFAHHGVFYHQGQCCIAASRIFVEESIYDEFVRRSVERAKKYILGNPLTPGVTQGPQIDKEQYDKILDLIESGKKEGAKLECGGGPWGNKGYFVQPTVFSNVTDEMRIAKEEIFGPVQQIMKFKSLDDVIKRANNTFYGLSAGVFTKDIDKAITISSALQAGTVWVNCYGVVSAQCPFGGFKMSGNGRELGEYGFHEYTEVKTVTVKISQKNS

Potency, inconclusive:
Cc1cc(/C=N/N2CCN(C)CC2)c(C)n1-c1ccc(Cl)cc1 39.8 µM [inhibitor, single point]
CCOc1ccc(N=NS(=O)(=O)O)cc1 5.01 µM [inhibitor, single point]
COc1ccc(NC(=O)C(NS(=O)(=O)c2ccc3c(c2)CCCN3C(C)=O)C(C)C)c(OC)c1 (stereo not given) 14.1 µM [inhibitor, partial curve]
COc1ccc(-c2noc(-c3cc4ccccc4oc3=O)n2)cc1 39.8 µM [inhibitor, single point]
Cc1cc(C(=O)N/N=C/c2ccc(Cl)c([N+](=O)[O-])c2)c(C)n1-c1ccc(F)cc1 35.5 µM [inhibitor, single point]
COc1ccc(Nc2nnc(-c3ccc(C)cc3)c3ccccc23)cc1C(=O)N1CCCCC1 39.8 µM [inhibitor, single point]
CCOc1cc(CNc2ccc3cn[nH]c3c2)ccc1OC 39.8 µM [inhibitor, single point]
COc1ccccc1/C=N/NC(=O)c1ccc(NC(=O)c2ccccc2Br)cc1 20 µM [inhibitor, single point]
O=C(CCSc1ccc(F)cc1)Nc1ccc(-n2cnnn2)cc1 10 µM [inhibitor, partial curve]
COc1cc2c3nnc(-c4ccc(F)cc4)c-3cn(Cc3ccc(F)cc3)c2cc1OC 28.2 µM [inhibitor, single point]
N#Cc1c(-c2ccccc2)nc(N2CCCCCC2)[nH]c1=O 31.6 µM [inhibitor, partial curve]
CC(C)Cn1c(-c2cccs2)nc2nc3ccccc3nc21 22.4 µM [inhibitor, partial curve]
O=C(Nc1nnc(SCC(=O)N2CCCCC2)s1)c1cccs1 39.8 µM [inhibitor, single point]
O=C(NCCC1=CCCCC1)c1ccc(Cl)c(S(=O)(=O)Nc2ccccc2)c1 39.8 µM [inhibitor, single point]
Cc1cc(=O)oc2cc(OCc3ccc(C(=O)OCC(=O)N(C)C4CCS(=O)(=O)C4)cc3)ccc12 (stereo not given) 25.1 µM [inhibitor, partial curve]
O=C(CSCCc1ccccn1)Nc1cccnc1 39.8 µM [inhibitor, partial curve, poor fit]
Cc1ccccc1Cn1cc(NC(=O)COc2ccccc2)cn1 31.6 µM [inhibitor, single point]
Cc1ccc(C(C(=O)NC2CCCCC2)N(Cc2ccco2)C(=O)Cc2c[nH]c3ccccc23)o1 (stereo not given) 31.6 µM [inhibitor, single point]
c1ccc(-c2cc(N3CCOCC3)nc3ccccc23)cc1 25.1 µM [inhibitor, partial curve]
Cc1cc(C)n(-c2cc(Oc3ccccc3)ncn2)n1 25.1 µM [inhibitor, single point]
Cc1cc(NC(=O)CSc2nnc3c(C)cc4ccccc4n23)no1 20 µM [inhibitor, partial curve]
COc1ccc(C2C(C(C)=O)=C(O)C(=O)N2CCc2c[nH]c3ccccc23)cc1OC (stereo not given) 1 µM [inhibitor, single point]
CC1(C)Cc2c(sc(NC(=O)COc3ccccc3)c2C#N)C(C)(C)N1 39.8 µM [inhibitor, single point]
COc1cccc(Nc2nnc(SCc3nc4ccccc4s3)s2)c1 39.8 µM [inhibitor, single point]
CN(C)c1ncc2nc(-c3cccc(C#N)c3)c(=O)n(CCC#N)c2n1 39.8 µM [inhibitor, single point]
COc1cccc(NC(=S)N(CCN2CCCCC2)Cc2ccco2)c1 39.8 µM [inhibitor, single point]
Cc1ccc(C)c2nc3sc(C(=O)O)cc3cc12 14.1 µM [inhibitor, partial curve]
CCC(=O)N(Cc1cc2cc(C)c(C)cc2[nH]c1=O)C1CCCCC1 25.1 µM [inhibitor, single point]
Cc1cc(C)c2cc(CN(CCO)C(=O)Nc3ccc(Cl)cc3)c(=O)[nH]c2c1 39.8 µM [inhibitor, single point]
Cc1cccc(CNc2ccnc(-c3ccc(N(C)C)cc3)n2)c1 28.2 µM [inhibitor, partial curve]
Cc1nc(NC(=O)CSc2nnc(-c3ccccc3)c(-c3ccccc3)n2)c(Cl)cc1Cl 39.8 µM [inhibitor, single point]
COc1ccc(NC(=S)N/N=C2\CC(C)(C)Oc3ccc(O)cc32)cc1 20 µM [inhibitor, partial curve]
CCOC(=O)C1CCN(S(=O)(=O)c2ccc3c4c(cccc24)C(=O)N3)CC1 4.47 µM [inhibitor, full curve]
CCOC(=O)c1cc(CC)sc1NC(=O)COC 39.8 µM [inhibitor, single point]
CCOc1cc(C)c(C(C)C)cc1S(=O)(=O)N1CC(C)OC(C)C1 (stereo not given) 17.8 µM [inhibitor, partial curve]
CC(=O)N=C1SC2CS(=O)(=O)CC2N1c1ccc(-c2nc3ccc(C)cc3s2)cc1 (stereo not given) 25.1 µM [inhibitor, partial curve]
O=C1C(Nc2ccccc2)=C/C(=N/S(=O)(=O)c2cccs2)c2ccccc21 12.6 µM [inhibitor, partial curve]
COc1ccc2c(=O)cc(C(=O)O)oc2c1 23.8 µM [inhibitor, partial curve]
O=C(c1cccc([N+](=O)[O-])c1)N1CC2C3C=CC(C3)C2C1 (stereo not given) 39.8 µM [inhibitor, single point]
COc1ccc2c(c1)sc(N)[n+]2Cc1cc(C)cc2cccnc12 25.1 µM [inhibitor, single point]
CCCCC(NS(=O)(=O)c1ccc(C)cc1)C(=O)Oc1ccc2c3c(c(=O)oc2c1)CCC3 (stereo not given) 12.6 µM [inhibitor, partial curve]
O=C(O)[C@H]1C(=CCO)O[C@H]2CC(=O)N12 39.8 µM [inhibitor, single point]
c1ccc(C[n+]2c(-c3ccccc3)csc2Nc2ccccc2)cc1 39.8 µM [inhibitor, single point]
CCc1nn2cc(C(=O)c3cc(C)ccc3O)cnc2c1-c1ccc(F)cc1 22.4 µM [inhibitor, single point]

Potency, inactive:
COC(=O)[C@H](Cc1ccccc1)NC(=O)O[C@@H]1C(=O)c2ccc(OC)cc2O[C@H]1c1ccc2c(c1)OCO2
CC(C)N1C(=O)CCC1C(=O)NCc1ccco1 (stereo not given)
Cn1c(-c2ccc3c(c2)OCO3)cnc1N
Cc1cc(Cl)c(S(=O)(=O)N2CCN(c3ccccn3)CC2)cc1OCC(N)=O
O=C(Cn1nc(-c2cccc([N+](=O)[O-])c2)c2ccccc2c1=O)Nc1cccnc1
COc1ccccc1NC(=O)CCCn1c(=S)[nH]c2ccccc2c1=O
COC(=O)[C@H](C)NC(=O)Nc1ccc(Oc2ccccc2)cc1
CC(=O)Oc1ccc(C(=O)[C@H]2[C@H]3C(=O)N(c4ccc5ccccc5c4)C(=O)[C@H]3[C@@H]3C=CC=NN32)cc1
CC12C(=O)N(c3ccccc3)C(=O)C1C(c1ccccc1)N1CCCN12 (stereo not given)
CCN(CC(=O)NC1CCS(=O)(=O)C1)S(=O)(=O)c1ccc2ccccc2c1 (stereo not given)
CCn1c(CNC(=O)c2ccc(OC)c(OC)c2)nnc1SCC(=O)Nc1ccccc1
CSCC(CO)NS(=O)(=O)c1ccc(C)cc1 (stereo not given)
C/C(=N\NC(=O)c1nonc1N)c1cccs1
COc1ccc(Cl)cc1-c1n[nH]c(=S)n1C1CCCCC1
Cc1ccc(S(=O)(=O)/C(C#N)=C/c2c[nH]c3ccccc23)cc1
COc1ccc(NC(=O)CSc2nnc(CNC(=O)COc3ccc(Cl)cc3)o2)c(OC)c1

Potency, active:
O=C(CCN1CCCCC1)NNC(=S)NC(=O)c1ccc(Br)cc1 28.2 µM
COc1ccc(NC(=O)c2ccc3c(c2)NC(=O)CS3)cc1S(=O)(=O)Nc1ccc(Br)cc1 10 µM
O=C1S/C(=C\C=C\c2ccco2)C(=O)N1c1ccccc1 20 µM
c1ccc(CN=C2NN=C(c3cc4ccccc4o3)CS2)cc1 28.2 µM
Cc1ccc2cc(CN(Cc3ccccc3)Cc3nnnn3C3CCCC3)c(=O)[nH]c2c1 10 µM
CCOc1ccc(CCNC(=O)C(CC)n2nc(C)n3c(cc4sccc43)c2=O)cc1OCC (stereo not given) 31.6 µM
Nc1cc(S(N)(=O)=O)ccc1SSc1ccc(S(N)(=O)=O)cc1N 2 µM
Cc1ccc(C(=O)O/N=C\c2ccc(N3CCCCC3)c([N+](=O)[O-])c2)cc1 1.41 µM
CCCC1CC(=O)OC1(C)C(=O)CSc1n[nH]c(-c2ccccc2)n1 (stereo not given) 12.6 µM

activity, negative = inhibition, inactive:
N[C@@H](CC1=CS(=O)(=O)c2ccc(Cl)cc21)C(=O)O -9.35% [at 13.5 µM]
